These results are taken from PMC4336329 (PLoS ONE, 2015).

The campaign covered roughly 310,000 compounds. About 14,000 (4.5%) showed an effect of 50% or more. Effects have a minus sign here. This is one part of the list.
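Further: peak tail current of the secondary pulse compared with the same well before compound.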

Chain of human ether-à-go-go-related gene (hERG) potassium channel (Q12809 whole entry, looked up): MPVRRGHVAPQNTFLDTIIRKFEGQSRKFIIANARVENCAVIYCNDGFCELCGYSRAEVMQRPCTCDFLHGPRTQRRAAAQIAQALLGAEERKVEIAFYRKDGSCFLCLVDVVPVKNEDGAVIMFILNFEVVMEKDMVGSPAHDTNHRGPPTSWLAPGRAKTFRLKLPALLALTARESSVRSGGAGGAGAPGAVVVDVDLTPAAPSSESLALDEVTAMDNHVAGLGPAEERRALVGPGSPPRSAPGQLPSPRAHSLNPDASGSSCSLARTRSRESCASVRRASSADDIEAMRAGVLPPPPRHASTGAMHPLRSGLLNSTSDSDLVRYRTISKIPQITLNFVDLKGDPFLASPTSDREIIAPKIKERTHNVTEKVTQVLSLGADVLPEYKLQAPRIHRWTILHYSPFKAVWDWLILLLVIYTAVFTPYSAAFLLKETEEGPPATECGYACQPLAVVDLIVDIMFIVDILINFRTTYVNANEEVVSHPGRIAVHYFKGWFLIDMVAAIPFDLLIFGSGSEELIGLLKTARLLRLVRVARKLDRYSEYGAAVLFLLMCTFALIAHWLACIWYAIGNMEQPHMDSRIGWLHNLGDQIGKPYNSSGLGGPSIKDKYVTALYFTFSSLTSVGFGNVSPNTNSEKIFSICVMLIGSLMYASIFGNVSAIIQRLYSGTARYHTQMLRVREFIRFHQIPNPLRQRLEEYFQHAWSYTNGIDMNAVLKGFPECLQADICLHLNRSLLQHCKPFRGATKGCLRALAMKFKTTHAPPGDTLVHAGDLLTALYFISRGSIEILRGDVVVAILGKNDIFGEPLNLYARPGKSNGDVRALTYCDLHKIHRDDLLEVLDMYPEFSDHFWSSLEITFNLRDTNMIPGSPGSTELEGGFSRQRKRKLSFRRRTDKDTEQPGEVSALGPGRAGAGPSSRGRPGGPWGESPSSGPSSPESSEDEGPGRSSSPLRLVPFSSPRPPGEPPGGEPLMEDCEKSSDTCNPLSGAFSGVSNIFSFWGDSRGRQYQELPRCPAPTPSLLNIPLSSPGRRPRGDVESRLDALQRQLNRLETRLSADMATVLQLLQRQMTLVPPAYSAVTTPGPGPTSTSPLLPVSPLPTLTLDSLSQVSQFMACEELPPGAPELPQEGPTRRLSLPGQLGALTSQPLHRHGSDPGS

This experiment concerns the target human ether-à-go-go-related gene (hERG) potassium channel (human, UniProt Q12809). As to the kind of experiment: primary screen, population patch clamp on CHO cells stably expressing hERG.
For `CCOC(=O)C1CCN(C(=O)c2ccc(SC)cc2OC)CC1`, the “hERG current change (%, negative = inhibition) at 10uM” value is reported as -19.8%. On to `CN(c1ccccc1)S(=O)(=O)c1ccc(C(=O)OCC(=O)NC(N)=O)cc1`, for which the “hERG current change (%, negative = inhibition) at 10uM” value is 11%. As for `Cc1ccc(S(=O)(=O)CCC(=O)Nc2nnc(CC(C)C)s2)cc1`, the figure is -1.45%; as for `O=C(NCc1ccccn1)c1ccccc1Cl`, 5.14%; as for `Cc1cccc(C)c1OCc1nnc(SCC(=O)Nc2cccc(C(=O)N3CCOCC3)c2)n1C`, -2.56%.

Take `Cc1nn(Cc2ccccc2)c(Cl)c1C(=O)O`: the “hERG current change (%, negative = inhibition) at 10uM” value is 29%.

For `CSc1nnc(-c2cnccn2)n1Cc1ccccc1`, the “hERG current change (%, negative = inhibition) at 10uM” value stood at 11.9%. As for `O=C(OCc1ccccc1)/C(=C(\O)c1ccccc1Br)c1ccc(-c2ccccc2)cn1`, the figure is 3.75%; as for `COc1ccc(C=C2C(=O)c3ccccc3C2=O)cc1O`, 6.27%; as for `COc1ccc(F)cc1S(=O)(=O)n1cc(C)nc1-c1ccccc1`, 2.69%. As for `NC(=O)C1CCCN(CC(=O)N2CCN(c3ccccc3)CC2)C1` (centres unmarked), the figure is 12.3%; as for `Cn1c(=O)oc2cc(S(=O)(=O)Nc3ccccc3O)ccc21`, 7.58%; as for `O=C(Cn1nnc(-c2ccc(S(=O)(=O)N3CCCC3)cc2)n1)NCC1CCCO1` (centres unmarked), 2.43%. As for `O=c1[nH]c(=O)n(Cc2ccco2)c(O)c1C=NCc1ccco1`, the figure is 3.46%; as for `CC1CC(C)(C)NC(=S)N1CC(=O)N1CCN(Cc2ccc3c(c2)OCO3)CC1` (centres unmarked), 12.2%. Consider `Cc1ccccc1NS(=O)(=O)c1cc(C(N)=O)ccc1C`, for which the “hERG current change (%, negative = inhibition) at 10uM” value was determined as 0.667%.

As for `COc1cccc(-c2nc(-c3ccc(C(=O)O)cc3)no2)c1`, the “hERG current change (%, negative = inhibition) at 10uM” value was -3.57%. As for `O=C(CSc1nc2ncccc2[nH]1)Nc1ccc2c(c1)OCO2`, the figure is 9.63%. As for `CC(C)(C)NC(=O)CN1CCN(C(=O)CCl)CC1.Cl`, the figure is 8.35%; as for `CN(C(=O)CCN1C(=O)C2C3C=CC(C3)C2C1=O)c1ccccc1` (centres unmarked), 12.3%; as for `CN1CCN(c2ccccc2NC(=O)C(Cc2ccccc2)n2cccc2)CC1` (centres unmarked), -65.6%. In the case of `O=C(O)CCCn1cc(NC(=O)c2c(F)cccc2F)cn1`, the “hERG current change (%, negative = inhibition) at 10uM” value turned out to be 22.5%. As for `CC1Cc2ccccc2N1C(=O)COC(=O)C1(c2ccccc2F)CCCC1` (centres unmarked), the figure is -5.21%; as for `OCC1CCCN(Cc2ccc(-c3ccccc3)cc2)C1` (centres unmarked), -28.4%; as for `COc1cc(NC(=O)c2cc(C)nc3ccccc23)cc(OC)c1`, 20.8%. As for `COC(=O)COC(=O)c1ccc(O)cc1`, the figure is -13.7%; as for `CCOC(=O)C1=C(CSc2nc(-c3ccncc3)ccc2C#N)OC(N)=C(C#N)C1c1ccc(OC)cc1` (centres unmarked), 2.11%. Take `CCSc1ccc([C@@H]2[C@@H]3C(=O)N(CC)C(=O)[C@@H]3[C@]3(C(=O)OC)CCCCN23)cc1.O=C(O)C(F)(F)F`: the “hERG current change (%, negative = inhibition) at 10uM” value is -4.27%. As to `Cc1cnn(-c2cc(N/N=C/c3ccccc3Cl)ncn2)c1`, the “hERG current change (%, negative = inhibition) at 10uM” value was determined as 15.1%. As for `CC(C(=O)O)n1nnc2ccccc21` (centres unmarked), the figure is 9.12%; as for `COc1ccc(NC(=O)CSCc2cc(=O)n3ccsc3n2)cc1`, 22.7%. For the molecule `CC(=O)c1c(-c2ccc(C)cc2)nc2c3ccccc3ccn12`, the “hERG current change (%, negative = inhibition) at 10uM” value is listed as 10.2%. For `COC(C(=O)Nc1ccc(S(=O)(=O)Nc2ccc(F)cc2)cc1)c1ccccc1` (centres unmarked), the “hERG current change (%, negative = inhibition) at 10uM” value was found to be 0.504%.

For the molecule `CCN1CCc2c(sc(NC(=O)c3ccc(S(=O)(=O)N4CCCCCC4)cc3)c2C(=O)NC)C1`, the “hERG current change (%, negative = inhibition) at 10uM” value is recorded as -36.6%. As for `COc1cccc(-c2ccc3ncnc(NCc4cccc(C)c4)c3c2)c1`, the figure is -0.57%. With `O=C(OCC(=O)N1CCOCC1)c1ccc[nH]c1=O`, the “hERG current change (%, negative = inhibition) at 10uM” value is listed as 10.6%. As for `O=C(Nc1ccc2c(c1)OCCO2)C1CCCN(c2ncccn2)C1` (centres unmarked), the figure is 3.43%; as for `O=C(c1ccc([N+](=O)[O-])s1)N1CCN(c2cccc(Cl)c2)CC1`, -66.1%. As for `Cc1ccc(C(CNS(=O)(=O)c2ccc([N+](=O)[O-])cc2)N2CCN(C)CC2)cc1` (centres unmarked), the figure is -66.8%; as for `O=[N+]([O-])c1ccc(N/N=C/c2c[nH]c3ccccc23)cc1`, 2.42%; as for `Cl.N#CC(c1ccccc1)C1CCN(Cc2ccccc2)CC1` (centres unmarked), -50.9%. As for `C/C=C/c1ccc(OCC(O)CN2CCCCCCC2)c(OC)c1` (centres unmarked), the figure is -35.4%; as for `CCC(C)NC(=O)C1c2cc(OC)c(OC)cc2C(=O)N(C)C1c1cccs1` (centres unmarked), 3.75%. Regarding `CCC1=NN2C(=N)/C(=C\c3ccc(OCCOc4ccc(NC(C)=O)cc4)c(OC)c3)C(=O)N=C2S1`, the “hERG current change (%, negative = inhibition) at 10uM” value came to 24.3%.
